# Source: PubChem BioAssay (NCATS)
# The shares of active, inactive and inconclusive entries below differ from those in the screen. For some assays here: Potencies of inconclusive entries are left out as doubtful fits. For some assays here: A note “side channel” means that the fit belongs to a control or component signal, not to the main read-out. Calls of active or inactive are those of the source. Unless noted, the call rests on the fitted dose curve; in most records, active means well fitted curve in the direction sought with a large enough effect; inconclusive means small, poorly fitted or top-dose-only effect, or another doubt; inactive means no such curve, though single readings can be large; an effect the other way counts as inactive or inconclusive.
# How the values were obtained:
# [1] = target: Luciferin 4-monooxygenase (Photinus pyralis) (UniProt P08659); assay: Biochemical firefly luciferase enzyme assay for NPC (AID 624030); further: nearly all actives have a fitted effect of over 70% in size
# In short: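 Purified P. pyralis luciferase at 10 nM in 50 mM Tris Acetate (final), luminescence read within 5 minutes of enzyme addition to compounds. Activity normalised to PTC124 versus DMSO; concentration-response curves classed by r2, magnitude and activity.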
# CP250 = assay: qHTS profiling for inhibitors of Plasmodium falciparum proliferation (AID 504749); further: nearly all actives have a fitted effect of over 60% in size; conditions: P. falciparum in erythrocytes, SYBR Green DNA, 72 h; series mostly up to 28.7 µM
# In short: (§1)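 Each compound contacts P. falciparum-infected red blood cells for 72 h at 37 C; lysis buffer (Tris, EDTA, saponin, Triton X, SYBR Green I) is added and fluorescence measured next morning; values normalized to controls.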
# N140 = assay: as above; conditions: P. falciparum in erythrocytes, SYBR Green DNA, 72 h; series mostly up to 28.7 µM
# In short: as §1
# CP265 = assay: as above; conditions: P. falciparum in erythrocytes, SYBR Green DNA, 72 h; series mostly up to 28.7 µM
# In short: as §1
# CP329 = assay: as above; conditions: P. falciparum in erythrocytes, SYBR Green DNA, 72 h; series mostly up to 28.7 µM
# In short: as §1
# ECU = assay: as above; conditions: P. falciparum in erythrocytes, SYBR Green DNA, 72 h; series mostly up to 28.7 µM
# In short: as §1
# [2] = High Content Imaging Cell-Based qHTS for Inhibitors of the mTORC1 Signaling Pathway in MEF (Tsc2-/-, p53-/-) Cells (AID 2666);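 further: percent of cells scored positive for phospho-rpS6 Ser235/236 immunostaining by imaging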
# In short: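 MEF Tsc2-/- p53-/- (empty vector), DMEM/10% FBS; cpd 24 h 37 °C; PFA fix, Alexa-488 p-rpS6 S235/236 Ab, Hoechst; imaged; rapamycin-defined inhibition; % positive cells/well.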
# [3] = target: DNA polymerase III PolC-type (Bacillus subtilis (strain 168)) (UniProt P13267); assay: qHTS Validation Assay for the Inhibitors of DNA Replication in Gram-Positive Bacteria (AID 485295)
# In short: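 Double-stranded DNA product detected by PicoGreen fluorescence after EDTA quench. Compound incubated with B. subtilis holoenzyme (PolC, beta subunit, SSB, primase) before substrate addition; primed replication of M13Gori with dNTPs and NTPs at room temperature; DMSO defines 0% inhibition.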
# [4] = target: DNA repair nuclease/redox regulator APEX1 (Homo sapiens) (UniProt P27695); assay: qHTS Validation Assay for Inhibitors of the Human Apurinic/apyrimidinic Endonuclease 1 (APE1) (AID 1705)
# In short: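 Activity read as rising fluorescence (598 nm emission, 525 nm excitation) from incision of a TAMRA/BHQ-2 duplex carrying a THF abasic site (50 nM). Compound and enzyme sat 15 min at RT before substrate start; signal change between first and third 60-s reads.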
# [5] = target: Phosphoglycerate kinase, glycosomal (Trypanosoma brucei brucei) (UniProt P07378); assay: qHTS Validation Assay to Find Inhibitors of Phosphoglycerate Kinase (AID 504547)
# In short: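 Compounds are pinned into the substrate/PGK mixture, and GAPDH (100nM final) is added to start the reaction by producing 1,3-BPG. After 60 minutes at room temperature, Kinase-Glo Plus is added and luminescence is measured 10 minutes later.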
# [6] = NS1 protein of Zika virus - qHTS assay to identify small molecule inhibitors in human HEK 293 cells (AID 1347053); further: nearly all actives have a fitted effect of over 55% in size
# In short: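 Readout was TR-FRET using paired anti-NS1 antibodies after 24 h infection of HEK 293 cells with ZIKV MR766 (MOI = 0.5). Compound preceded virus by 1 h; reduced signal reflects lower NS1 expression.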
# CP185 = assay: qHTS profiling for inhibitors of Plasmodium falciparum proliferation (AID 504749); further: nearly all actives have a fitted effect of over 60% in size; conditions: P. falciparum in erythrocytes, SYBR Green DNA, 72 h; series mostly up to 28.7 µM
# In short: as §1
# CP201 = assay: as above; conditions: P. falciparum in erythrocytes, SYBR Green DNA, 72 h; series mostly up to 28.7 µM
# In short: as §1
# CP217 = assay: as above; conditions: P. falciparum in erythrocytes, SYBR Green DNA, 72 h; series mostly up to 28.7 µM
# In short: as §1
# CP325 = assay: as above; conditions: P. falciparum in erythrocytes, SYBR Green DNA, 72 h; series mostly up to 28.7 µM
# In short: as §1
# DFO2036 = assay: as above; conditions: P. falciparum in erythrocytes, SYBR Green DNA, 72 h; series mostly up to 28.7 µM
# In short: as §1
# [7] = target: Rap guanine nucleotide exchange factor 3 (Homo sapiens) (UniProt O95398); assay: Confirmatory qHTS for antagonist of cAMP-regulated guanine nucleotide exchange factor 3 (EPAC1) (AID 1645880); further: nearly all actives have a fitted effect of over 55% in size
# In short: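 Released BODIPY-GDP fluoresces less than Rap1-bound BODIPY-GDP; the signal is followed at 480/540 nm at 5-min intervals over 30 min, after 5 min at room temperature. Reactions contain 100 nM EPAC1, 250 nM RAP1B-BODIPY-GDP and 50 uM GDP; results are normalized to ATA and DMSO.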
# [8] = target: Tyrosine-protein phosphatase non-receptor type substrate 1 (Homo sapiens) + Leukocyte surface antigen CD47 (Homo sapiens) (UniProt P78324+Q08722); assay: CD47-SIRPalpha protein protein interaction - LANCE assay qHTS validation (AID 1347057; active means well fitted curve in the direction sought with a large enough effect in the signal ratio, with a control signal flat, not every such curve was filed as active; inconclusive means small, poorly fitted or top-dose-only effect, or effect the other way, or a change in a side signal; inactive means no such curve, though single readings can be large or run the other way; the % refers to the signal ratio)
# In short: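 Inhibition of soluble CD47/SIRPalpha ectodomain association by titrated compounds, measured as 665/615 nm time-resolved FRET ratio after sequential 30 min room-temperature incubations.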
# Potency means the concentration at half of the fitted maximal effect; tags describe the fitted curve by direction and shape.
# UniProt P78324, sequence (P78324 whole entry, looked up, the tested form may be a part): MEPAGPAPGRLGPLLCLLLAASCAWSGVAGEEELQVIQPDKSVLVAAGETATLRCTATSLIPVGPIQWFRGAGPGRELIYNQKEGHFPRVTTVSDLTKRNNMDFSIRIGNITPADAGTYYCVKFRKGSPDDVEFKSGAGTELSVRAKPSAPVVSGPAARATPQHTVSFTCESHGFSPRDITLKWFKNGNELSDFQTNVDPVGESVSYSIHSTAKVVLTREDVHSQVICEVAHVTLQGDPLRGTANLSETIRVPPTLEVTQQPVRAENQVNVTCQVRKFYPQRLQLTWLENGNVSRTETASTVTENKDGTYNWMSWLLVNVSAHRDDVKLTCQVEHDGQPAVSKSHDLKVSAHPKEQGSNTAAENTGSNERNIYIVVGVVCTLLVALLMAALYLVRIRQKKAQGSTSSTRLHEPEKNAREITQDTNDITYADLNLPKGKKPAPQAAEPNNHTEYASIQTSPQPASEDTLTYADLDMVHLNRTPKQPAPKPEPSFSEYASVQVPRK
# UniProt P78324, sequence (Q08722 whole entry, looked up, the tested form may be a part): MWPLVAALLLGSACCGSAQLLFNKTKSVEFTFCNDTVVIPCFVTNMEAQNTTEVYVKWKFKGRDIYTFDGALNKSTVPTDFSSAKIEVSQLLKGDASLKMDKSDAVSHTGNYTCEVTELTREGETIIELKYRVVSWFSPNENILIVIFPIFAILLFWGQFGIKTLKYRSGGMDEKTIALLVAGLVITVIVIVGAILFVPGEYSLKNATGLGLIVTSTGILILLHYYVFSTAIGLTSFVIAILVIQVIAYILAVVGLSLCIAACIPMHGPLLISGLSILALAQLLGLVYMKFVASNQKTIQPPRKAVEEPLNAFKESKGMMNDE
# UniProt P13267, sequence (P13267 whole entry, looked up): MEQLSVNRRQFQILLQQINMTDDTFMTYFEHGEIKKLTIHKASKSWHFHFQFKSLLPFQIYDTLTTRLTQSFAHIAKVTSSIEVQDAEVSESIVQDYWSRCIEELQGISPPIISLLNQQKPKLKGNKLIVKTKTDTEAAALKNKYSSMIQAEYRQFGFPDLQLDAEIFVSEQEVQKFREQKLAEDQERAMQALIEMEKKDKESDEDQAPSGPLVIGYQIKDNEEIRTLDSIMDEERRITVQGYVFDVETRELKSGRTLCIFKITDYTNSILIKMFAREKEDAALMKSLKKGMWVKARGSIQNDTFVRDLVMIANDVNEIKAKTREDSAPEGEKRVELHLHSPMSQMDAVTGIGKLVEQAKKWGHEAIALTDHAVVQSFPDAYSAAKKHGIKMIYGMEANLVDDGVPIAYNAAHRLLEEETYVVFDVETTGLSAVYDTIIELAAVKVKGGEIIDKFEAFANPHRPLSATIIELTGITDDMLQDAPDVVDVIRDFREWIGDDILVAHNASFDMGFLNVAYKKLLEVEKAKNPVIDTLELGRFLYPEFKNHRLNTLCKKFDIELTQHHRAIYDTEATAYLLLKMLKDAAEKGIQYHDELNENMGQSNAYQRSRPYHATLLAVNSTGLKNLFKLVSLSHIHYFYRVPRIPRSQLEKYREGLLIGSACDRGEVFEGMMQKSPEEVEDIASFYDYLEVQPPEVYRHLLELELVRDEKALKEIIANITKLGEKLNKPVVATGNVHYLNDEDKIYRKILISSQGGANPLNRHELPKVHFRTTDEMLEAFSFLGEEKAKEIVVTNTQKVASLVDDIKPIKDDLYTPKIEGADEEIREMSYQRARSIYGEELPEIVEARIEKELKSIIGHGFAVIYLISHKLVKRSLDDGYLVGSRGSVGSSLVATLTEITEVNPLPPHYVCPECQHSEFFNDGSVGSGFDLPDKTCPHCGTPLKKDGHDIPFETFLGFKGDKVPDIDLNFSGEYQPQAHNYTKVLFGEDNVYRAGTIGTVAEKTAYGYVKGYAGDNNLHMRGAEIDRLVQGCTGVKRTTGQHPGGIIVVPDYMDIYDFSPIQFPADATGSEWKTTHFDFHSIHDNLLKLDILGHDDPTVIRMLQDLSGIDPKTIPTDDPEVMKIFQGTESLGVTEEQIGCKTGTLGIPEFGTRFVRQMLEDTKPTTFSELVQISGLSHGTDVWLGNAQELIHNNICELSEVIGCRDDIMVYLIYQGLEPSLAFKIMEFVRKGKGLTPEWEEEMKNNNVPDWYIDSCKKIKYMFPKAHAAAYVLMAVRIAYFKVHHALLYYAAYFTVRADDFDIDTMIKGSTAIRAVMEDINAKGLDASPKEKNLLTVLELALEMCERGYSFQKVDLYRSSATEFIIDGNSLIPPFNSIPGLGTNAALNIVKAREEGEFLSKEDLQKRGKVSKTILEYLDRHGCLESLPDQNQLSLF
# UniProt O95398, sequence (O95398 whole entry, looked up): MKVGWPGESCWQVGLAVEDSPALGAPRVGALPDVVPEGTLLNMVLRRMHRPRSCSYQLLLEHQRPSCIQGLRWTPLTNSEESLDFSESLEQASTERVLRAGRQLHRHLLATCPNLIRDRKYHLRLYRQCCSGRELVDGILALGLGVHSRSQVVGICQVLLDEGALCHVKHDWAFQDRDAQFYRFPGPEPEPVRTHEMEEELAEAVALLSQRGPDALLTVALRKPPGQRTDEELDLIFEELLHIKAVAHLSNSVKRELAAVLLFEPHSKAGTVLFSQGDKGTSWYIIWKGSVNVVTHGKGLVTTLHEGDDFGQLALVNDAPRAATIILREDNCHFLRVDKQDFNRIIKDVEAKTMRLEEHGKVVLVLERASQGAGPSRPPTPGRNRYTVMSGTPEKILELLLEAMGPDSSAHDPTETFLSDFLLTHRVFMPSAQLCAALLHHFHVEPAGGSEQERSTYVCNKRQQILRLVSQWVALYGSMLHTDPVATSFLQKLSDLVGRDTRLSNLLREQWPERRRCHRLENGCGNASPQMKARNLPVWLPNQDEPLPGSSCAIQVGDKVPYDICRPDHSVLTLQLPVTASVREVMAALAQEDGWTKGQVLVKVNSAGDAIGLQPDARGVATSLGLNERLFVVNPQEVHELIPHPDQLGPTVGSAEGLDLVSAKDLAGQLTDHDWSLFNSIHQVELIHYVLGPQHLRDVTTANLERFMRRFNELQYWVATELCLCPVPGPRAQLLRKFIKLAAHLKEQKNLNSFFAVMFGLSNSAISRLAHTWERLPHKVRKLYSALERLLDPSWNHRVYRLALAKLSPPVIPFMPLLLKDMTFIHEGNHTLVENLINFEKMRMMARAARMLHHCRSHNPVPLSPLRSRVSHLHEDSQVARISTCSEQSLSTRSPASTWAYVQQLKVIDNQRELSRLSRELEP
# UniProt P27695, sequence (P27695 whole entry, looked up): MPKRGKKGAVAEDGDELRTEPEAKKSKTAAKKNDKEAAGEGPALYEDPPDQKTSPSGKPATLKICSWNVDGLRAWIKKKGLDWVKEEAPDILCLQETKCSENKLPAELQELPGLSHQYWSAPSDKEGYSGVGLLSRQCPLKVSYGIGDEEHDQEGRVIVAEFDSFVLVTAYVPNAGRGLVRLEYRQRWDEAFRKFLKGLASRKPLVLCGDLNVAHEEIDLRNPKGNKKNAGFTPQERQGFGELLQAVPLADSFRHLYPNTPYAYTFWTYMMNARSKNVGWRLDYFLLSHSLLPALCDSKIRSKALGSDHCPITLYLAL
# UniProt P08659, sequence (P08659 whole entry, looked up): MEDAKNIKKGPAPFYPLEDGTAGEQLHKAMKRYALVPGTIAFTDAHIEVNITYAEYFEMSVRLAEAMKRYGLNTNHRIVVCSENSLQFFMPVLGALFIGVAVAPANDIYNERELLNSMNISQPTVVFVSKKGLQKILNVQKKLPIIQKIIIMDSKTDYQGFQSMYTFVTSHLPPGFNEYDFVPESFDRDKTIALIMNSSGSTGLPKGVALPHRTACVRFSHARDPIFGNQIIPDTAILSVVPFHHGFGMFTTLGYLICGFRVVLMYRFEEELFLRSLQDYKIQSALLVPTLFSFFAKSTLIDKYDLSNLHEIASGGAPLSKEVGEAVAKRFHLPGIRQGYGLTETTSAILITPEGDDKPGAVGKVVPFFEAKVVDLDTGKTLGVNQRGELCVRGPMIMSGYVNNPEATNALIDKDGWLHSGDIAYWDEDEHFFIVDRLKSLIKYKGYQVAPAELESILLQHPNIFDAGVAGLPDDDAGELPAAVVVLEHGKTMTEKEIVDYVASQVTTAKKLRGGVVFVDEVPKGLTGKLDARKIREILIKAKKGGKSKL
structure (smiles),measurement,setting,value
COc1ccc(/C=C/C(=O)OCCC(C)C)cc1,Potency,[1],active: 11.4 µM
same,Potency,CP250,"inconclusive [inhibitor, single point]"
same,Potency,N140,"inconclusive [inhibitor, single point]"
CN(C)CCOc1ccccc1Cc1ccccc1 (tested in a mixture with another compound),Potency,[1],inactive
CCN(CC)CCCC(C)Nc1cc(/C=C/c2ccccc2Cl)nc2cc(Cl)ccc12 (stereo not given),Potency,CP265,active: 2.82 µM
same,Potency,CP329,active: 6.75 µM
same,Potency,ECU,active: 2.51 µM
C=C(Nc1ccc(OCC)cc1)Nc1ccc(OCC)cc1,Potency,CP329,inactive
CCCCCCCC/C=C\CCCCCCCC(=O)NCCc1ccc(O)c(O)c1,Potency,[2],"inconclusive [falling, full curve]"
same,Potency,[3],active: 18.9 µM
O=C(N[C@@H](Cc1ccccc1)C(=O)CCl)OCc1ccccc1,Potency,[2],"inconclusive [falling, single point]"
CC(C)(C)c1cc(/C=C(\C#N)C(N)=S)cc(C(C)(C)C)c1O,Potency,[4],"inconclusive [inhibitor, partial curve]"
CCCCCCCCCCCCCCCCCCOC[C@H](COP(=O)([O-])OCC[N+](C)(C)C)OC,Potency,[3],"inconclusive [inhibitor, single point]"
O=c1oc(Cl)c(Cl)c2ccccc12,Potency,[4],inactive
COc1cc(/C=C(\C#N)C(=O)Nc2nnc(C(F)(F)F)s2)ccc1OCc1ccc(C(F)(F)F)cc1C(F)(F)F,Potency,[5],"inconclusive [inhibitor, single point]"
NS(=O)(=O)C#Cc1ccccc1,Potency,[6],"inconclusive [inhibitor, single point]"
CN1C2CCC1CC(OC(c1ccccc1)c1ccccc1)C2 (stereo not given),Potency,CP185,"inconclusive [inhibitor, partial curve]"
same,Potency,CP201,"inconclusive [inhibitor, partial curve, poor fit]"
same,Potency,CP217,"inconclusive [inhibitor, partial curve]"
same,Potency,CP250,"inconclusive [inhibitor, partial curve]"
same,Potency,CP325,"inconclusive [inhibitor, partial curve]"
same,Potency,DFO2036,"inconclusive [inhibitor, partial curve]"
same,Potency,ECU,"inconclusive [inhibitor, partial curve]"
CCOC(=O)C1=C(C)NC(C)=C(C(=O)OCC)C1c1c(F)c(F)c(F)c(F)c1F,Potency,[2],"inconclusive [falling, single point]"
same,Potency,[7],"inconclusive [inhibitor, single point]"
COc1cc(OC)c(/C=C2/C(=O)Nc3ccccc32)c(OC)c1,Potency,[8],"inconclusive [side channel, falling, partial curve]"
O=C(c1cc(O)c(O)c([N+](=O)[O-])c1)c1ccccc1F,Potency,[5],"inconclusive [inhibitor, single point]"
Cc1cc2c(cc1Cl)N(C(=O)Nc1ccc(Oc3cccnc3C)nc1)CC2,Potency,[6],"inconclusive [inhibitor, single point]"
CC[C@@H]1Cc2cc(O)ccc2C2=C1c1ccc(O)cc1C[C@H]2CC,Potency,[8],"inconclusive [side channel, falling, single point]"
CCCC(=O)NCCc1c2n(c3ccc(OC)cc13)CCCc1ccccc1-2,Potency,[7],inactive
CC[n+]1c(/C=C/C=C2/N(C)c3ccccc3C2(C)C)sc2ccccc21,Potency,[5],"inconclusive [inhibitor, partial curve]"
same,Potency,[6],"inconclusive [inhibitor, partial curve, poor fit]"
same,Potency,[8],"inconclusive [rising, single point]"
O=C1O/C(=C/Br)CCC1c1cccc2ccccc12 (stereo not given),Potency,[7],"inconclusive [inhibitor, partial curve, poor fit]"
OCC1O[C@H]([S-])[C@H](O)[C@@H](O)[C@@H]1O.[Au+] (stereo not given in full),Potency,[5],active: 8.49 µM
same,Potency,[6],"inconclusive [inhibitor, single point]"
same,Potency,[8],active: 5.85 µM
Nc1nc(SCc2ccc([N+](=O)[O-])cc2)c2ncn([C@@H]3O[C@H](CO)[C@@H](O)[C@H]3O)c2n1,Potency,[5],inactive
CC[C@@H](C)[C@H]1O[C@]2(CC[C@H]1C)C[C@@H]1C[C@@H](CC=C(C)[C@@H](O[C@H]3C[C@H](OC)[C@@H](O[C@H]4C[C@H](OC)[C@@H](O)[C@H](C)O4)[C@H](C)O3)[C@@H](C)C=CC=C3CO[C@@H]4[C@H](O)C(C)=C[C@@H](C(=O)O1)[C@]34O)O2,Potency,[2],"inconclusive [falling, single point]"
same,Potency,[3],"inconclusive [inhibitor, partial curve]"
same,Potency,[6],"inconclusive [inhibitor, single point]"
O=C1Nc2ccc(I)cc2/C1=C/c1cc(Br)c(O)c(Br)c1,Potency,[4],"inconclusive [inhibitor, partial curve]"
same,Potency,[3],active: 21.2 µM
same,Potency,[7],active: 19.8 µM
O=C(CCCCCN1CCN(c2ccccc2-c2ccccc2)CC1)NC1CCCc2ccccc21 (stereo not given),Potency,[3],"inconclusive [inhibitor, single point]"
CC(=O)N[C@@H](Cc1c[nH]c2ccccc12)C(=O)OCc1cc(C(F)(F)F)cc(C(F)(F)F)c1,Potency,[4],"inconclusive [inhibitor, partial curve]"
same,Potency,[7],"inconclusive [inhibitor, partial curve]"
N#Cc1cc([N+](=O)[O-])c2sc(C(N)=O)[n+]([O-])c2c1,Potency,[2],active: 18.5 µM
CCCCCCCC/C=C\CCCCCCCC(=O)NCCO,Potency,[4],"inconclusive [inhibitor, partial curve]"
CCCCCC[C@@H]([C@@H](C)O)n1cnc2c(N)ncnc21,Potency,[8],inactive
